The other results are listed elsewhere or left out. At the low end of the ranking the order means little.

This assay addresses SIX1 homeodomain (reference allele) (UniProt Q15475). The experiment in a line: universal protein binding microarray. To be noted: Universal all-10-mer PBM (8x60K, AMADID 030236), 300 nM GST-tagged protein, Alexa Fluor 488 anti-GST; buffer, salt, pH and temperature not stated; high values mean tight binding; most listed sequences are background and not binding sites; double strand, one strand shown.
For GCAGAGCC, the binding signal was -0.191 E-score.
As for CTCCTTCC, the figure is -0.0616 E-score.
On to ATAACCCG, for which the binding signal amounted to 0.126 E-score.
For GTGCTCCA the value was -0.105 E-score; for CTGAGGAC, -0.154 E-score; for GAAGAGGC, -0.112 E-score.
As for AAATTGCT, the figure is -0.31 E-score.
As for ATACTAAC, the figure is 0.243 E-score.
For AAACACGT, the binding signal is -0.186 E-score.
As for GCATCAAA, the binding signal is -0.118 E-score.
Regarding TGATCTAA, the binding signal was 0.14 E-score.
CTTCCAGA: the binding signal is -0.0823 E-score.
As for AACCCACG, the binding signal is -0.0638 E-score.
In the case of AACGAGAA, the binding signal was -0.135 E-score.
As for AGACGGTA, the figure is 0.196 E-score.
In the case of GCCAGACC, the binding signal was -0.231 E-score.
For AGGAGTCC the value was -0.191 E-score.
Consider TGAACACA, for which the binding signal was -0.141 E-score.
For CAATTGAA the value was -0.141 E-score; for CCATCTCC, 0.124 E-score.
For AGGATATC the value was 0.466 E-score.
As for AACACATT, the figure is -0.0749 E-score; as for GCGCATAA, -0.151 E-score.
As to CGCCTCCA, the binding signal was -0.128 E-score.
For GAACACCA the value was 0.0855 E-score.
As for GCTGGCCA, the figure is -0.237 E-score.
As for ATACAACA, the figure is 0.144 E-score.
In the case of ATGTAGAC, the binding signal was -0.016 E-score.
As for CAGGGCAG, the figure is -0.0772 E-score.
On to AGAGGTAT, for which the binding signal amounted to 0.399 E-score.
For CGCTCCAA, the binding signal amounted to 0.011 E-score.
For ACGAACCT the value was -0.14 E-score.
As for GCCCCCCC, the figure is -0.126 E-score; as for CATCCAGG, -0.0372 E-score; as for ACTGAGCG, -0.0401 E-score.
Regarding AAGAGGTC, the binding signal is -0.0965 E-score.
For AAGCTGGA the value was 0.0264 E-score; for AACTGGAA, -0.178 E-score; for ATCCGAAA, 0.246 E-score.
For ACCCAGAT the value was 0.338 E-score; for AGTTGTAG, -0.134 E-score.
As for ACCGCAGC, the figure is -0.109 E-score.
Regarding TCCTAGGA, the binding signal was 0.096 E-score.
For AGCAGAAT the value was -0.0899 E-score.
As for ACGTCTGA, the figure is 0.0308 E-score; as for ATGATGGA, 0.0804 E-score; as for TCTATGCA, 0.074 E-score.
For the sequence GAGGGCGA, the binding signal is -0.159 E-score.
For ATAAGTGC the value was -0.107 E-score.
For CTGCCTGC, the binding signal was -0.114 E-score.
As for CTGGATGA, the figure is 0.0682 E-score.
As for AGGGCTTC, the binding signal is -0.215 E-score.
In the case of ACAATCCG, the binding signal was 0.216 E-score.
For GAGGGTGA the value was -0.149 E-score; for AGAAATAC, 0.0635 E-score.
For AGAATGAA the value was -0.173 E-score.
As for GCTCGTAA, the figure is -0.0299 E-score; as for TCATGTAA, -0.0418 E-score.
Turning to CTAAAAAG, the binding signal is -0.273 E-score.
Consider CATGTGGG, for which the binding signal is -0.0538 E-score.
For GACTATAC the value was 0.237 E-score.
As to CCCATGGC, the binding signal was -0.0434 E-score.
For CAATCCAA the value was -0.0072 E-score; for GAGCTAGA, 0.00693 E-score; for ACACAACG, -0.0741 E-score.
Turning to ACTCTTCT, the binding signal was -0.00282 E-score.
With ATACGCAC, the binding signal is 0.254 E-score.
Turning to GACTAAAA, the binding signal is -0.125 E-score.
For GACGCCTA the value was -0.161 E-score.
On to ATGGGCGG, for which the binding signal turned out to be 0.0993 E-score.
Take CCGTCTAG: the binding signal was determined as 0.119 E-score.
As for CACTCCAC, the binding signal is -0.162 E-score.
CGTCATAA: the binding signal was -0.0846 E-score.
For the sequence GACACCCA, the binding signal is 0.396 E-score.
As for CTGCGTAC, the figure is -0.213 E-score; as for CGGCGTCA, -0.0319 E-score; as for CTTAGGGA, -0.0384 E-score.
As for AAGTCACT, the figure is -0.337 E-score.
For CCGTACAA the value was -0.0215 E-score; for TGATCGAA, 0.00534 E-score.
With TACAACAA, the binding signal is -0.0918 E-score.
Consider AACTTGCG, for which the binding signal was -0.215 E-score.
For CCTTCAGC the value was -0.284 E-score.
As for AGGGCTCA, the figure is 0.12 E-score; as for GGGGTTTA, 0.148 E-score.
For AGATCGAC the value was 0.139 E-score; for GGGTTTCA, 0.179 E-score.
For the sequence CACGAATG, the binding signal was found to be 0.00522 E-score.
With AGAAAACT, the binding signal is -0.235 E-score.
With GCCCAGGC, the binding signal was -0.204 E-score.
Consider CGGGCCCG, for which the binding signal was -0.295 E-score.
Turning to CGATAAGC, the binding signal stood at 0.0138 E-score.
For TAATAGGA the value was 0.133 E-score; for AAGCTATA, 0.0434 E-score; for GCACGAGC, 0.0515 E-score.
For GCTACGAA the value was -0.148 E-score; for ATTCAACG, -0.117 E-score.
As for GAAGGGCA, the figure is -0.228 E-score.
For ATAGCTCG, the binding signal amounted to 0.135 E-score.
Consider ACTGTCAA, for which the binding signal was -0.233 E-score.
Regarding CAATAGCG, the binding signal was -0.0879 E-score.
As for ACGGGTTC, the figure is 0.0992 E-score; as for AGCAGGAA, -0.258 E-score; as for AAACTGGA, 0.0258 E-score.
With AAGCGCAC, the binding signal was -0.188 E-score.
As to AAAAAGCA, the binding signal was -0.297 E-score.
With GATGGCCC, the binding signal was -0.101 E-score.
For ATCAATTC the value was 0.203 E-score; for AGAGAGCA, -0.146 E-score; for AAGAAGCT, -0.214 E-score.
Turning to AGAGTGGC, the binding signal was -0.267 E-score.
As for AAAGATTT, the binding signal was -0.207 E-score.
On to CACGCCAA, for which the binding signal was -0.108 E-score.
As for GCCCTTCC, the figure is -0.271 E-score.
For ATTGGCAA the value was 0.0408 E-score; for GCGATGCC, -0.0705 E-score; for AGCCCTAA, -0.14 E-score.
As for ACCCCTAA, the figure is -0.0467 E-score.
In the case of ACACTACG, the binding signal was -0.0301 E-score.
For the sequence ACTAGAGT, the binding signal is -0.123 E-score.
As to GGAACTAC, the binding signal is -0.291 E-score.
As for AGAATAGA, the binding signal is -0.0228 E-score.
For CCTTCACA the value was -0.0651 E-score; for GAAGGTAC, -0.105 E-score; for CGGTGGGA, -0.00609 E-score.
As for CTTAGCAC, the figure is -0.141 E-score; as for CCAGGCAA, -0.18 E-score; as for AGTTAGGG, -0.0206 E-score.
For ACGTTATA the value was 0.141 E-score; for ATAACAGA, 0.0319 E-score.
ACTCAAGA: the binding signal amounted to 0.00144 E-score.
Turning to CTATTGGC, the binding signal is -0.134 E-score.
As for ATTACGCA, the figure is -0.0292 E-score.
For GCTTGGCA, the binding signal was -0.218 E-score.
For AAGTGATC the value was 0.391 E-score.
For GATAAAGA the value was 0.13 E-score.
On to AAGGCGAG, for which the binding signal was -0.116 E-score.
For AGTTAACC, the binding signal was -0.18 E-score.
As for CCTATCTA, the figure is 0.178 E-score.
For CACTGTCA the value was -0.138 E-score; for AACTTCGG, -0.236 E-score.
In the case of CCTTATAC, the binding signal is 0.161 E-score.
Turning to AGTTCGCG, the binding signal is -0.0399 E-score.
Consider ATGTCCGA, for which the binding signal was determined as 0.0442 E-score.
On to AAAAATAT, for which the binding signal is 0.0842 E-score.
With AATGCCGT, the binding signal was found to be 0.0168 E-score.
Regarding AATCGCTC, the binding signal was -0.169 E-score.
As for CGGTCCAA, the figure is -0.126 E-score.
With ACGAGGCA, the binding signal is -0.0999 E-score.
As to ATCTAGTC, the binding signal is 0.0339 E-score.
As to AGGACCTA, the binding signal was 0.0652 E-score.
CCCCCCGG: the binding signal came out at 0.0234 E-score.
For GTCATCAC the value was -0.146 E-score; for AATCGGAT, 0.253 E-score.
As to AATCGCAG, the binding signal is -0.0685 E-score.
As for CATGCCAC, the binding signal was -0.0399 E-score.
For CCCTAAGG the value was -0.0545 E-score; for CGTCTTTA, 0.0316 E-score; for CACCGCTC, 0.0873 E-score.
As for CGAGATAG, the figure is 0.085 E-score.
As for ACCACCGT, the figure is -0.0519 E-score; as for ACACTGTG, -0.00611 E-score.
Turning to GATATTAC, the binding signal came to 0.319 E-score.
With CATGGTGA, the binding signal was found to be 0.225 E-score.
As for CTCGTAAC, the figure is -0.0545 E-score.
For TACTCGGA the value was 0.162 E-score; for AGTTGGGG, 0.102 E-score; for AAGACTCC, -0.324 E-score.
As for AAGCTCAG, the figure is -0.207 E-score; as for AATGCGAG, -0.0242 E-score.
Take TCAGGGCA: the binding signal was -0.0105 E-score.
For AAGCAGCG the value was -0.0895 E-score.

Source of the values: publication PMC10668032.
